± gives the standard deviation of the averaged measurements. The list shows a part of the results.
Tested on: PfAP2-G AP2 domain (GST-tagged)
Assay: gcPBM binding intensity (ln(normalized median fluorescence intensity)); higher = stronger DNA binding
Procedure, shortened: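 An Agilent 4 × 180k array carrying primer-extended double-stranded 36-bp intergenic genomic probes and negative controls received GST-tagged P. falciparum DNA-binding domains expressed in E. coli, about 25 μg on average, for 1 h. The binding buffer contained 1× PBS, 1% milk, 0.2 mg/ml BSA, 0.5% salmon testes DNA and 0.03% Triton X-100. Binding intensity is the top Masliner-normalised natural-log median intensity across replicate spots of either probe orientation, read after Alexa488 anti-GST antibody staining and a 488 nm scan.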

Sequence	gcPBM binding intensity (ln)
AACCAATATGTGTATACACACATAAATATAAATATA [CACACA_site7729]	10.1 ± 0.25
AAAAAAAAAAAAAGGTGTACATAAGTAAATTCATAT [XGTACX_site4206]	11.5 ± 0.8
TCATACTGTATATTTTGTACTTATATATATATTATA [XGTACX_site6136]	11.2 ± 0.48
CATTATGTTGTAAATGCACACATACATATACACAGT [CACACA_site8990]	10.3 ± 0.19
ACAGAATACATATACACACATACAAAAAAGTGCATA [CACACA_site987]	10.3 ± 0.16
TATATAAACACGTACACACACATATAGGTATTTATA [CACACA_site7615]	11.6 ± 1
TTATTTTGTTTTAAAAGTACACACTTTTAATTAGAT [XGTACX_site2271]	11.6 ± 1.1
ATAATAAGCAAACACACACACACAAAAAAAAAAAAA [CACACA_site720]	10 ± 0.63
TACAAAAGCGATACGGCACACATTTCCTGTTTAAAT [CACACA_site2746]	10.21 ± 0.092
AAAAGATTGCTCCGCATGCACCTCCAAAAGTTCCTT [GTGCAC_site9993]	9.925 ± 0.035
TTTGCTTCCAAAAGTCGTACAAAAAATATTAAATAT [XGTACX_site4171]	11.6 ± 0.9
TAAATATATTAATACACACACGATATGTACAAAAAA [CACACA_site540]	11.3 ± 0.73
TGCATATACGCAAGCACACATATATATATATATATA [CACACA_site1069]	10.1 ± 0.26
TTTTGATTTCCTATTGCACACTTTTTTTAAGTTTAT [CACACA_site1056]	10.185 ± 0.007
TATATATATATATAATGTACATATAATATATTTATT [XGTACX_site7892]	11.2 ± 0.73
GCTTAATGTCATATATCACACATGAAAATATATATA [CACACA_site5089]	10.1 ± 0.12
AACAAAACCTTATATGTACACACATATACATCACAC [CACACA_site9037]	11.3 ± 0.61
TATATATATATATATTGTACTGAACGTTTTTTTTTG [XGTACX_site8060]	10.8 ± 0.67
ATTAATTTTAATAAAGGTACACGTAGTTTTTTATTA [XGTACX_site7868]	11 ± 0.69

Sequence	gcPBM binding intensity (ln)
TTAAAATTAAAAATGCGTACACATATACATAAAAAA [XGTACX_site1915]	11.7 ± 1
ATATACACTTAATTTTTTATAAAAAAAAATTTATAT [CACACA_negctrl_site498]	10 ± 0.24
GTAATAATTTTTTGTAGTACACAAAAATTCATATTT [XGTACX_site2699]	11.7 ± 1.1
ATGTGATATAAGTACACACACATATGTATTTATAAC [CACACA_site6942]	11.5 ± 0.8
ATATACATAATCTTCTTGCACTTTTTTTTTTTTTTT [GTGCAC_site9410]	10.3 ± 0.22
TATATTTTGTTCTTTCCACACACAAATACATATATT [CACACA_site9348]	10.2 ± 0.11
AATTTATAATTATAGAGTACATATTTTTAATATATA [XGTACX_site2566]	11.1 ± 0.83
AGAAAAACTTATATGATACACACGATAAACAAAATA [CACACA_site1038]	10.7 ± 0.71
TACAAACACCCATATACACACAAAAAAAAAATAAAA [CACACA_site5421]	10.1 ± 0.47
TATACATAAAACAGTTCACACATTGTATGAATATAT [CACACA_site4751]	9.855 ± 0.035
TATATAATATATATATGTACATATATATATGTTTTT [XGTACX_site3347]	11.1 ± 0.61
GGACAACAAACAAACACACACAAAAAAAAAATAAAA [CACACA_site3791]	10.3 ± 0.19
TTGTTTCTTTTTTTTTGTACATATATATTGTATATT [XGTACX_site7602]	11 ± 0.61
AATTTTTCAAATTAATGTACTTGTTATAAATTGTAA [XGTACX_site5428]	11.1 ± 0.89
TACGTATTTTAATATTTACACACTTATTTTTTATAT [CACACA_site7924]	10.2 ± 0.13
GGCAATACATAATAATGTACATAATTATATAATATT [XGTACX_site3739]	11 ± 0.54
TATATCTGTTTATATTGTACACATATATATATATAT [XGTACX_site714]	11.4 ± 0.93
AAATATATTATATCATATATTAAAGCATATATTAAA [CACACA_negctrl_site1624]	9.46 ± 0.23
GATAATTTTTTTCTCACACACAAATATTTTAATCAT [CACACA_site3666]	10.02 ± 0.092

Sequence	gcPBM binding intensity (ln)
TAATAATAGTACTGACATCGAAATATTATTAAAAAT [CACACA_negctrl_site255]	10.8 ± 0.71
ATATTTTGGGGACTTTTTAAAAAAGAAGTATTAAAA [CACACA_negctrl_site1228]	10.9 ± 0.61
TGGCAAAATAGGCACACACACATATACCTATAGATT [CACACA_site7168]	10.2 ± 0.27
GTAAATATATAAACATGTACATATATAAATATATAA [XGTACX_site7262]	11.2 ± 0.84
TATAAGAATAAAAAGGGTACATAAAATAATAATATA [XGTACX_site2355]	11.3 ± 0.73
GTTTACATAGATAACTGTACGCAATGATATTAGACA [XGTACX_site1320]	11.5 ± 1
CAAAAAAAATAAAACACACACACAAAAAAATAAAAA [CACACA_site466]	10 ± 0.042
AAAAAAAAAAAACACACACACACACCGACACATACA [CACACA_site5576]	10.3 ± 0.36
AGGTAAAAATGGTAAGTGCATTAATGATAAAAAATG	10.3 ± 0.19
GAATATTCACATACTTGTACATATATATATATATAT [XGTACX_site7302]	11.1 ± 0.65
ATATTTCTGTGTGGATGTACATTATTAGCAGGCTTT [XGTACX_site6496]	11 ± 0.63
AAAATATATACACAAACATGCATATAATAAATAAAT [TGCATGCA_site711]	9.895 ± 0.064
ATAATTCAAAAAAACACACAAATTACAAAATAAACT [CACACA_site6264]	9.965 ± 0.007
CAAAATAATAATAAAAGTACTAACATATTTATGAAA [XGTACX_site6078]	11.1 ± 0.68
ATATAAACAGAAAATAGTACTTTATATTGAAAAAAA [XGTACX_site7183]	10.9 ± 0.59
GATGATACAAAGTAATGTACATAAATACACATATTG [XGTACX_site3177]	10.9 ± 0.47
AAATTTGATATAAAAAGTACAAAATGTTCCTCAGCT [XGTACX_site809]	11.1 ± 0.52
GTTTACATTAAAAATTGTACTCTGTATGAATAATAT [XGTACX_site80]	11 ± 0.78
CTTAAAAAAACCTTAACACACATAAACTCTAATTTA [CACACA_site7430]	9.84 ± 0.11
